# Test results reported in PubChem BioAssay AID652104 (National Center for Advancing Translational Sciences (NCATS), 2013).
# Hit rate of the full screen: of about 410,000 compounds, about 7,200 (1.8%) were called active. The inconclusive results got no clear call from the source; some entries with a clear call stand among them for comparison. Calls come from the whole dose curve; as a rule, active = well fitted activation curve with a large enough effect; inconclusive = small, poorly fitted or top-dose-only effect, or another doubt; inactive = no such curve, though single readings can be large or run the other way. Potencies of inconclusive entries are left out as doubtful fits.
# Experiment: qHTS of TDP-43 Inhibitors; note: nearly all actives have a fitted effect of over 50% in size; for growth rescue (activation): % of control where 0% means no effect
# Details: TDP-43 expressing yeast growth rescue, BacTiter-Glo, 24 h; growth rescue (activation): at 46.1 µM (top of the series) unless noted
# Outline: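 Yeast cells expressing TDP-43 under galactose induction are exposed to compounds for 24 hr at 30 deg C. BacTiter-Glo luminescence measures growth, so protective compounds score as activators.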
# Potency is the fitted concentration of half-maximal effect; tags give direction and shape of the fitted curve.
SMILES,Potency,growth rescue (activation)
Cn1c(=O)c2c(ncn2CC(COCc2ccc(Cl)cc2)OCc2ccc(Cl)cc2)n(C)c1=O (stereo not drawn),"inconclusive [activator, single point]",
O=S(=O)(N/N=C\C=C\c1ccccc1)c1ccc(Br)cc1,"inconclusive [activator, single point]",
COc1cc2c(c(OC)c1OC)C(=O)C(=Cc1ccccc1)O2,"inconclusive [activator, partial curve]",
COc1ccc2c(c1)N(C)C(=O)CC(c1ccccc1)=N2,"inconclusive [activator, single point]",
O=C(NNc1ccccc1F)c1ccccc1,,inactive: -17% [at 1.82 µM]
O=[N+]([O-])c1ccccc1S(=O)(=O)N1CCCc2ccccc21,"inconclusive [activator, single point]",
COc1ccccc1NC(=S)NCc1ccc(F)cc1,"inconclusive [activator, partial curve]",
COc1ccc(CNC(=S)Nc2cccc(C)c2)cc1,"inconclusive [activator, partial curve]",
COc1cc(-c2nnc(-c3ccco3)o2)ccc1OCc1ccccc1,"inconclusive [activator, single point]",
O=C(/C=C/c1ccccc1[N+](=O)[O-])NCC1CCCO1 (stereo not drawn),"inconclusive [activator, partial curve]",
Cc1nc2nc(SCc3ccc(F)cc3Cl)nn2c(C)c1Cc1ccccc1,"inconclusive [activator, partial curve]",
Cc1ccc(C(=O)N2c3ccccc3N(Cc3ccccc3)C(=O)C2(C)C)cc1,"inconclusive [activator, single point]",
Cc1cccc(-c2cc(NC(=O)C(C)(C)C)n(-c3ccccc3)n2)c1,"inconclusive [activator, partial curve]",
COc1ccccc1OCCn1cc(C=O)c2ccccc21,"inconclusive [activator, single point]",
COc1ccc([C@H]2/C=C\CN(C(=O)C3CCCC3)[C@@H](C)C(=O)N2Cc2ccc(F)cc2)cc1,"inconclusive [activator, single point]",
O=C(Cn1ccc2cc(S(=O)(=O)N3CCCCC3)ccc21)NCCc1ccc(Cl)cc1,inactive,
O=C(O)Cc1sc(Nc2ccccc2Cl)nc1-c1ccccc1,inactive,
COC(=O)c1sc(NC(=O)c2cc3nc(-c4ccc(Br)cc4)cc(C(F)(F)F)n3n2)c(C(=O)OC)c1C,inactive,
COc1ccc(CCNC(=O)CN(c2cc(C(F)(F)F)ccc2Cl)S(C)(=O)=O)cc1,"inconclusive [activator, full curve, poor fit]",
COCCNC(=O)Cc1c(C)c2cc3c(cc2oc1=O)OC(C)(C)CC3,inactive,
CCCCn1c(=O)c(C(=O)OCC)c(O)c2ccccc21,active: 15.8 µM,
Cc1cc(C)c(NC(=O)CCCN2C(=O)COc3ccc(C)cc32)c(C)c1,inactive,

SMILES,Potency,growth rescue (activation)
CC1(C)S[C@@H]2[C@H](NC(=O)COc3ccccc3)C(=O)N2C1C(=O)OCc1ccccc1 (stereo partly drawn),"inconclusive [activator, partial curve]",
O=C1CC(N2CCN(c3ccccc3)CC2)C(=O)N1c1cccc(Cl)c1 (stereo not drawn),"inconclusive [activator, partial curve, poor fit]",
CCOC(=O)c1ccc(NC(=O)CCc2nc(-c3ccccc3Cl)no2)cc1,"inconclusive [activator, single point]",
Cc1ccc(S(=O)(=O)NC(=O)C2(C)CCN2C(=O)CCc2ccc(Cl)cc2Cl)cc1 (stereo not drawn),"inconclusive [activator, partial curve, poor fit]",
COc1cc(-c2ccno2)ccc1S(=O)(=O)N1CCN(c2ccccc2F)CC1,"inconclusive [activator, single point]",
CC1=NOC(=O)/C1=C\c1ccc(-c2ccccc2Br)o1,"inconclusive [activator, single point]",
Cc1cc(C)n(CC(O)CN2c3ccccc3Sc3ccccc32)n1 (stereo not drawn),"inconclusive [activator, single point]",
Cc1cc(Br)c(NC(=O)COC(=O)C2CC2C)c(Br)c1 (stereo not drawn),"inconclusive [activator, full curve, poor fit]",
O=C(c1ccccc1)C1CCN(C(=O)c2cccs2)CC1,"inconclusive [activator, partial curve]",
CC(=O)Nc1cccc(Oc2ncnc3scc(-c4ccc(C)cc4)c23)c1,"inconclusive [activator, partial curve]",
O=C(c1cncc(Br)c1)N1CCCc2ccccc21,"inconclusive [activator, partial curve]",
CCOC(=O)c1cc(S(=O)(=O)N2CCN(c3cc(C)ccc3C)CC2)[nH]n1,"inconclusive [activator, single point]",
CC12CCC(c3nnc(SCc4ccc(Cl)cc4)nc31)C2(C)C (stereo not drawn),inactive,
O=C(NCc1ccco1)c1cccc(Br)c1,inactive,
O=C(COC(=O)c1ccc(OC(F)F)cc1)NCc1cccs1,"inconclusive [activator, partial curve]",
O=C(NC1CCCCC1)C(c1ccccc1)n1c(=O)c(-c2ccco2)nc2ccccc21 (stereo not drawn),"inconclusive [activator, partial curve]",
Fc1ccc(-c2cc(-c3ccccc3)c3c(n2)-c2cc(F)ccc2OC3)cc1,inactive,
Cc1ccc(-c2c(C)n3c4c(=O)n(C)c(=O)n(C)c4nc3n2-c2cccc(O)c2)cc1,inactive,
O=C(Nc1c(-c2ccccc2)[nH][nH]c1=O)c1ccc(-c2ccccc2)cc1,,inconclusive: -59.1% [activator]
S=C(c1ccc(-c2cc(Cl)ccc2Cl)o1)N1CCOCC1,active: 12.6 µM,
CCC(=O)C1CCCN(C(=O)c2ccc3nc(-c4cccc(OC)c4)oc3c2)C1 (stereo not drawn),"inconclusive [activator, partial curve]",
